Test results as given in PubChem BioAssay AID1347071 (National Center for Advancing Translational Sciences (NCATS), 2019).
Screen size: about 410,000 compounds; about 260 (0.063%) were called active. This list was built around the results that the source calls inconclusive (neither active nor inactive); the mix of calls is not that of the screen. The call rests on the fitted dose curve; in most records, active means well fitted activation curve with a large enough effect; inconclusive means small, poorly fitted or top-dose-only effect; inactive means no such curve, though single readings can be large or run the other way. Potencies of inconclusive entries are left out as doubtful fits.

assay: qHTS for compounds that reverse cellular toxicity of Amyloid beta (A-beta) peptide in yeast: Primary Screen; conditions: yeast expressing A-beta42, growth rescue, OD600, 48 h; growth rescue: at 46.1 µM (top of the series), 0% DMSO, 100% iron-clioquinol control; further: nearly all actives have a fitted effect of over 55% in size
Method in brief: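 Yeast growth medium received pinned compounds, then yeast cells expressing toxic A-beta were added; plates incubated at 30 C for 48 hr. Growth read as absorbance at 600 nm, normalized to DMSO and equimolar FeCl3 plus clioquinol controls.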
Potency means the concentration at half of the fitted maximal effect; tags describe the fitted curve by direction and shape.

Q: Which Potency does the source give for `O=C(COC(=O)c1ccc(Br)c(S(=O)(=O)N2CCOCC2)c1)NCCc1ccccc1` here?
A: inactive

Q: For `CN(C)C(=O)c1ccc(NC(=O)COc2cccc(Oc3ccccc3)c2)cc1`, which Potency is on record?
A: inconclusive [activator, single point]

Q: For `COc1ccc(C2=CC(c3ccc(F)cc3)n3ncc(C(=O)Nc4ccc(C)cc4)c3N2)cc1` (stereo unspecified), which Potency is on record?
A: inactive

Q: Which Potency does the source give for `Cc1ccc(Cn2c(C(=O)O)c(CNCc3ccccc3Cl)c3ccc(C)cc32)cc1` here?
A: inactive

Q: Which Potency does the source give for `CCOc1ccc(CCNC(=O)CCc2c(C)nc3c4c(C)cc(C)nc4nn3c2C)cc1` here?
A: inactive

Q: With `COc1cc(/C=C2/C(=O)ON=C2C)ccc1OCc1cccc(F)c1` as the molecule, how does the Potency read?
A: inconclusive [activator, partial curve, poor fit]

Q: Which Potency does the source give for `Cc1ccccc1NC(=O)c1ccc(F)c(S(=O)(=O)N(C)Cc2ccccc2)c1` here?
A: inconclusive [activator, partial curve, poor fit]

Q: For `COc1ccccc1CNC(=O)CCCn1c(=O)c2ccccc2n(CC(=O)NC2CCCC2)c1=O`, which Potency is on record?
A: inconclusive [activator, single point]

Q: Which Potency does the source give for `CC(C)c1ccc(C2N3CC4(C)CN2CC(c2ccccc2)(C3)C4=O)cc1` (stereo unspecified) here?
A: inactive

Q: Which Potency does the source give for `CCc1ccc(NC(=O)c2cc(C(C)=O)n3ccccc23)cc1` here?
A: inactive

Q: For `COc1ccc(NC(=O)CSc2cn(CC(=O)N3CCOCC3)c3ccccc23)cc1OC`, which Potency is on record?
A: inactive

Q: With `COc1ccc(/C=N/NC(=S)SC)cc1OC` as the molecule, how does the Potency read?
A: inconclusive [activator, partial curve, poor fit]

Q: For `Cc1nc(C)c(-c2csc(Nc3ccc(F)cc3)n2)s1`, which Potency is on record?
A: inconclusive [activator, single point]

Q: For `COc1ccc(NCC(O)COc2ccc(C(C)(C)C)cc2)cc1` (stereo unspecified), which Potency is on record?
A: inconclusive [activator, partial curve]

Q: For `CCOc1ccc2c(c1)-c1c(ssc1=S)C(C)(C)N2C(=O)CSC1=NCCS1`, which Potency is on record?
A: inactive

Q: With `CCCCNC(=O)c1c(N)[nH]c(C(=O)c2ccccc2)c1-c1ccccn1` as the molecule, how does the Potency read?
A: inactive

Q: Which Potency does the source give for `CCN(C(=O)CSc1ncn[nH]1)C1CCCCC1` here?
A: inactive

Q: With `Cc1ccc(C(=O)CSc2nc(O)cc(=O)[nH]2)cc1C` as the molecule, how does the Potency read?
A: inconclusive [activator, partial curve, poor fit]

Q: For `CCC(C)(C)C1CCC2(CC1)NC(=S)N(c1ccccc1)N2` (stereo unspecified), which Potency is on record?
A: inconclusive [activator, partial curve]

Q: For `Cc1ccc(C(=O)Nc2nc(-c3ccccn3)cs2)s1`, which Potency is on record?
A: inconclusive [activator, single point]

Q: Which Potency does the source give for `CC(C)C[C@H]1CNC(=S)N1C[C@H]1CCCN1C[C@H](Cc1ccccc1)N1C[C@H](CC(C)C)N(CCc2ccccc2)C1=S` here?
A: inconclusive [activator, single point]
